± gives the standard deviation of the averaged measurements. The list shows a part of the results.

For the assay, the system named is PfAP2-I AP2 domain 3 (GST-tagged). Put plainly: gcPBM binding intensity (ln(normalized median fluorescence intensity)); higher = stronger DNA binding. The essentials: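 GST-tagged P. falciparum DNA-binding domains produced in E. coli were incubated for 1 h on an Agilent 4 × 180k array of primer-extended double-stranded 36-bp intergenic genomic probes with negative controls. Binding intensity is the highest Masliner-normalised natural-log median intensity across replicate spots of either probe orientation, with bound protein detected by Alexa488 anti-GST antibody at 488 nm.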
Consider “AAGAATCACCAAATATGTACACACCTTAACATGTTT [XGTACX_site4272]”, for which the “gcPBM binding intensity (ln)” value worked out at 7.95 ± 0.56. To “CCACTGTATGAATGCACACATTCATAGAATTGCTAT [CACACA_site2676]” belongs 9.5 ± 0.099. To “GATGATTCAATTTATGCACACTAAAAATTAATTATA [CACACA_site4308]” belongs 9.86 ± 0.44; to “CCATAGATATTTTATACACACATATAATATATTAAT [CACACA_site373]”, 7.68 ± 0.55; to “ATAATCTGACAAATGTGTACACATATATATATATAT [XGTACX_site2379]”, 9.45 ± 0.51. “AAATAATATATTCCTTGTACTTATTTCAATGAATTC [XGTACX_site7719]”: the “gcPBM binding intensity (ln)” value was found to be 7.7 ± 0.47. To “ACCAAAAGGGGATGTAGTACAATATGATTAGAAGAA [XGTACX_site3773]” belongs 8.04 ± 0.49; to “AAAATACCCGGACACACACACATATATATATATATT [CACACA_site6137]”, 8.16 ± 0.49; to “TAACTTCAAACAAAATATGGTAAAAGTGGTTGAAAA [CACACA_negctrl_site42]”, 7.88 ± 0.73. Under “TAAAGAGTCATGTGGTGTACCTGCTTCACCACATAT [XGTACX_site1288]” stands 7.7 ± 0.42. Under “TTATTTTTAATATCGGTGCAACAAAAAGGAAAAGAT [GTGCAC_site9482]” stands 10.4 ± 0.28.

With “TATATATTCATAAAGTGTACATGTTTATATATATAT [XGTACX_site7585]”, the “gcPBM binding intensity (ln)” value stood at 8.975 ± 0.021. For “TATGTATAGATATATACACACTTCTGTGATACGAAA [CACACA_site7003]”, the “gcPBM binding intensity (ln)” value is 7.54 ± 0.59. To “ATATGTACATATCTCATGCACTTAACAAAAAAAAAG [GTGCAC_site9898]” belongs 8.88 ± 0.18; to “TTATTCTACATATATGCATGTGTATGATCTGTTTAT [TGCATGCA_site782]”, 7.79 ± 0.45. For “CATATATACCTATATACACACATATAGATTTATATA [CACACA_site6451]”, the “gcPBM binding intensity (ln)” value came to 7.61 ± 0.44. Take “TGATATTATCTCTTCACACACTCACATACAGACAAA [CACACA_site1246]”: the “gcPBM binding intensity (ln)” value is 7.84 ± 0.52. To “AAAATAAAAAAAATGTAAAAGGTTAAAGTGAAATAT [CACACA_negctrl_site350]” belongs 7.96 ± 0.71; to “ATATAAATGATATGTACACACATTTATATATATAAA [CACACA_site3475]”, 7.86 ± 0.43; to “ATTTATTTATATACAAGTACATAAAAAATTAACTTA [XGTACX_site6170]”, 7.695 ± 0.049. Turning to “TATTTGATAAAAAAAAGTACTAGAATTTCGCTTTTG [XGTACX_site7754]”, the “gcPBM binding intensity (ln)” value came to 7.32 ± 0.37. To “TAAAAATTAAAATGTTGTACAATGATAAAATATTAT [XGTACX_site7874]” belongs 7.95 ± 0.45.

On to “TAAATTGAAATATATTGTACATTATCAACTAAGGGA [XGTACX_site1635]”, for which the “gcPBM binding intensity (ln)” value stood at 7.66 ± 0.37. To “CTCAACATATACGTAACACACATATAAATATAAATA [CACACA_site7749]” belongs 7.95 ± 0.38; to “AAATTATAAAATAACTGTACCAATCCTTTTTTTTTA [XGTACX_site2229]”, 7.46 ± 0.63.

For “TGTAGTCTGGAGAAAAGTACATAGTATCTGGTAACA [XGTACX_site4940]”, the “gcPBM binding intensity (ln)” value came out at 7.93 ± 0.42.

In the case of “TTTTAATTTTAAAAATGTACTTTTATTATTTTTAAT [XGTACX_site8300]”, the “gcPBM binding intensity (ln)” value stood at 7.63 ± 0.42. With “AATCTAATATAATGCACACATAAAAAAAAATCAAAC [CACACA_site3633]”, the “gcPBM binding intensity (ln)” value was 11.1 ± 0.94. To “TATTATATGTAGTTGAGTACATATAAATACATATAT [XGTACX_site7933]” belongs 7.78 ± 0.34; to “AAATAGTTAAAAAGGCGTACACATAAATAAATAAAT [XGTACX_site2096]”, 8.59 ± 0.33. With “GTATATATATATATATATATAATAGTAACTTTTACT [CACACA_negctrl_site608]”, the “gcPBM binding intensity (ln)” value is 8.16 ± 0.4. As for “ATGAATAAAAAAGGTGGTACATATATATATATATAT [XGTACX_site7893]”, the “gcPBM binding intensity (ln)” value was determined as 9.47 ± 0.26. To “ATACATATATAATTATGTACGTATATTTTATATAAC [XGTACX_site4292]” belongs 7.89 ± 0.18; to “AAAATAATATAAATAATATAAGTGAGCATATATATA [TGCATGCA_negctrl_site527]”, 7.92 ± 0.72. For “TGTCTTGTAAATTATTGTACTATTTAAAGTATAAAA [XGTACX_site7863]”, the “gcPBM binding intensity (ln)” value was determined as 7.71 ± 0.3. On to “CATATAGATTTGTTCACACACACACTAAAAAAAAAA [CACACA_site7212]”, for which the “gcPBM binding intensity (ln)” value was determined as 8.08 ± 0.48. To “ATATTCAATTCATACACACACAATTTAAGAATGATA [CACACA_site3883]” belongs 7.66 ± 0.56; to “AATAAAATTTGCGATGCACACAGAATAGCTAATATG [CACACA_site8983]”, 7.96 ± 0.57; to “TTATTTTACTTTTATGCAACTAAAAATATTGCTATA [XGTACX_negctrl_site277]”, 8.45 ± 0.17. Under “ACAAATGTGAGAAAGACACACATATAATAAAAAACA [CACACA_site1156]” stands 7.71 ± 0.56. As to “TACAGACATACATACACACATACATACAGACATACA [CACACA_site1941]”, the “gcPBM binding intensity (ln)” value is 7.83 ± 0.39.

As for “CACACGCACGAACACACACACACACGCACGCACATA [CACACA_site6305]”, the “gcPBM binding intensity (ln)” value came out at 8.61 ± 0.23.

Turning to “TATATTTAATTATTTTGTACTCATATAAAGATGATG [XGTACX_site5488]”, the “gcPBM binding intensity (ln)” value turned out to be 7.62 ± 0.32. To “AAAAAAAAAATATTTGAACACACGAGGATATATAAA [CACACA_site139]” belongs 7.82 ± 0.89; to “TACATATTTACTATCACACACACGATATAAATAAAT [CACACA_site6701]”, 7.8 ± 0.42; to “TATTTAATGTGATACTTATATTATTTTATGATTAAA [GTGCAC_negctrl_site25]”, 7.47 ± 0.42. Turning to “TATACATACTCACCCACACACAAAAAAAAAAAAAAA [CACACA_site862]”, the “gcPBM binding intensity (ln)” value worked out at 8.08 ± 0.4. Under “TATATAAGAATTTTTACACACATGAAAATGTAGATA [CACACA_site3735]” stands 7.46 ± 0.36; under “ATAATATATATATTAACACACATCCTTTTATGTATA [CACACA_site1203]”, 7.87 ± 0.44. Under “TTATAATAATTTTATGCACACAGAAAAATACAAGGT [CACACA_site9169]” stands 9.66 ± 0.085.

Turning to “GAACCGTGCAAATGTTGTACACTTTAAAAATATTCT [XGTACX_site4488]”, the “gcPBM binding intensity (ln)” value came to 9.96 ± 0.3. Under “ATATGTGTGTAGTGTTCAATTATATTGATGTGAAGG [TGCATGCA_negctrl_site462]” stands 8.12 ± 0.48; under “AAAACGAAAATTTGGAAACCAAAGGAAAAACATAAT [GTGCAC_negctrl_site709]”, 7.97 ± 0.81; under “TACATATAGAAACACACACACATATATATATATATA [CACACA_site1300]”, 9.47 ± 0.72. Consider “TAGGAGCCTAGACACACACACAAAAAAAAAAAAAAA [CACACA_site6911]”, for which the “gcPBM binding intensity (ln)” value amounted to 7.8 ± 0.62.

On to “AAAAAGGTTATTGGTACACACATATGTATATATATA [CACACA_site552]”, for which the “gcPBM binding intensity (ln)” value worked out at 8.93 ± 0.35.

The record behind these values is the supplement of paper PMC11417369.
